We go through 89 molecules from PubChem BioAssay AID463173 (ICCB-Longwood Screening Facility, Harvard Medical School, 2010).

Screen size: about 52,000 compounds; about 4,300 (8.3%) were called active. Cut-off read from the data, not from the text of the source: active = survival mostly below about 52% (no sharp cut-off); inactive = mostly above about 56%. The list shows a part of the results.

In this assay the test system is DeltatarO mutant. Put plainly: S. aureus survival, RN4220 and DeltatarO strains – OD600, teichoic acid synthesis inhibitors, primary screen (AID 463173). To be noted: S. aureus RN4220 wild type/DeltatarO growth, OD600, 18 h, hits give low values, screened at 18.75 µg/mL (by protocol).
Take `CCC(Oc1ccccc1F)C(=O)N1CCC(c2nc3ccccc3s2)CC1` (centres undefined): the survival was active: 2%.
On to `COc1ccc(Cl)cc1NC(=O)C1CCCN(c2ncnc3onc(C)c23)C1` (centres undefined), for which the survival was inactive: 120%.
Next, `CCOc1ccccc1CNC(=O)c1c(C)oc2ncnc(N3CCOCC3)c12`: inactive: 94%; `CCOc1ccc(NC(=O)CSc2ccc(-c3sc(-c4ccccc4)nc3C)nn2)cc1`: active: 15%; `CCOc1ccc2nc(Cl)c(C3CC(c4ccc(OC)cc4)=NN3S(C)(=O)=O)cc2c1` (centres undefined): inactive: 127%.
For `Cc1ccccc1C(=O)NC1(C(F)(F)F)N=C(c2ccccc2)N(C2CCCCC2)C1=O` (centres undefined), the survival was inactive: 86%.
Then `NC(=O)CN(c1ccccc1)C1SC(=O)NC1=O` (centres undefined), with inactive: 76%; and `Cc1cccc(NC(=O)c2ccc3snnc3c2)c1C`, with inactive: 102%; and `O=c1c2cc3c(cc2n(Cc2ccc(F)cc2)c(=O)n1Cc1nc(-c2ccccc2)no1)OCO3`, with inactive: 83%.
Then `Cc1cccc(NC(=O)c2cc3c(=O)n4cccc(C)c4nc3s2)c1C`, with inactive: 65%; and `CC(C)CN(CCCNC(=O)CN1N=C(c2ccc(Cl)cc2)CCC1=O)CC(C)C`, with inactive: 60%; and `CCCn1c(CNC(=O)c2ccc(F)cc2)nc2ccccc21`, with inactive: 76%.
Regarding `Cc1ccc2oc(-c3ccc(C)c(NC(=O)c4ccc(N5CCC(C)CC5)c([N+](=O)[O-])c4)c3)nc2c1`, the survival was inactive: 135%.
With `CNS(=O)(=O)c1cn(CC(=O)N2CCN(c3cccc(C)c3C)CC2)cc1S(=O)(=O)NC`, the survival was inactive: 69%.
Regarding `Cc1ccc(S(=O)(=O)N(Cc2nc(-c3cccc(C)c3)no2)C2CCCCC2)cc1`, the survival is active: 46%.
In the case of `O=c1cc(-c2ccccc2)nc(SCc2nc(-c3ccc(Cl)cc3)no2)[nH]1`, the survival is inactive: 69%.
On to `O=C(COCc1cc(-c2ccc3c(c2)OCO3)on1)N1CCN(c2cccc(Cl)c2)CC1`, for which the survival was inactive: 63%.
Next, `COc1ccc2nc(NS(=O)(=O)Cc3ccccc3)sc2c1`: inactive: 75%; `O=C1CC2CCC(CN1)N2CC(=O)Nc1ccc(F)cc1` (centres undefined): inactive: 99%; `Clc1ccc2c(c1)NC(c1ccncc1)=NC(c1cccs1)=N2`: inactive: 76%.
Next, `COc1ccc2c(c1)CCc1c(C(=O)Nc3c(C)nn(Cc4ccccc4C)c3C)noc1-2`: inactive: 32%.
Then `CCOc1ccccc1NC(=O)C(CC(C)C)NS(=O)(=O)c1ccc2c(c1)oc(=O)n2C` (centres undefined), with inactive: 131%; and `COc1cc(CNC(=O)c2ccc3nc(CCc4ccccc4)oc3c2)cc(OC)c1OC`, with inactive: 80%; and `COC(=O)c1c(SC)nc2ccccc2c1OCc1ccc(Cl)cc1`, with inactive: 92%.
Take `CN(C)c1ccc(-c2nc(-c3ccco3)no2)cc1[N+](=O)[O-]`: the survival was inactive: 52%.
Consider `Cc1ccc(Cl)cc1-n1ncc2c(NCCCc3ccccc3)ncnc21`, for which the survival is inactive: 118%.
`Cc1c(Nc2nc3ccccc3n3c(C)nnc23)cccc1C(=O)O`: the survival was inactive: 90%.
For the molecule `CCN(CC)S(=O)(=O)c1ccc2c(c1)N(CC(=O)N1CCN(c3cccc(OC)c3)CC1)C(=O)CO2`, the survival is inactive: 67%.
Then `CCc1ccc(NC(=O)c2ccc(F)c(S(=O)(=O)NCc3ccc(Cl)c(Cl)c3)c2)cc1`, with inactive: 109%; and `O=c1[nH]ncc(NCc2ccc(Cl)cc2)c1Cl`, with inactive: 93%; and `CCc1nonc1NC(=O)c1oc2ccc(C)cc2c1C`, with inactive: 75%.
Next, `COc1ccc(-c2cc(-c3ccc4c(c3)NC(=O)CO4)nc3c2COc2ccc(F)cc2-3)cc1`: inactive: 79%; `CCOc1ccc(N2C(=O)c3n[nH]c(-c4cccs4)c3C2c2cccc(F)c2)cc1` (centres undefined): inactive: 45%.
As for `CCc1cccc(C)c1NC(=O)CCn1c(=O)c2cccn2c2ccccc21`, the survival is inactive: 58%.
Regarding `CC(C)C(=O)NCC1(N(C)C)CCCCC1`, the survival is inactive: 85%.
Next, `Cc1cc(N2CCN(c3cccc(C(F)(F)F)c3)CC2)n2nc(-c3ccccc3)nc2n1`: active: 41%; `CCOc1ccc(C(=O)Nc2c(C(=O)N3CCN(c4ccccc4F)CC3)oc3ccccc23)cc1`: inactive: 83%.
Next, `Cc1ccc(NS(=O)(=O)c2cc3[nH]c(=O)c(=O)[nH]c3cc2C)cc1Cl`: inactive: 73%.
Then `Cc1ccc(NC(=O)N2CC3CCCN3c3ccccc32)c(C)c1` (centres undefined), with inactive: 86%.
`Fc1ccc(-n2ncc3c(N4CCCCCC4)ncnc32)cc1`: the survival was inactive: 71%.
In the case of `Cc1ccc(-c2cc(C(=O)N(Cc3ccc(C(C)(C)C)cc3)Cc3ccco3)no2)cc1`, the survival is inactive: 113%.
Next, `COc1ccc(NC(=O)c2ccco2)cc1NC(=O)COc1ccc(Cl)c(C)c1`: inactive: 71%.
Next, `Cc1ccc2nc(-c3ccc(Cl)c(NC(=O)COc4ccc(C(C)C)cc4)c3)oc2c1`: active: 42%.
Next, `CC1(C)CC(=O)C(Sc2nnc(-c3ccc(O)cc3)n2CC2CCCO2)C(=O)C1` (centres undefined): inactive: 63%; `COc1ccc(NC(=O)CCc2nnc3n(Cc4ccccc4Cl)c(=O)c4ccccc4n23)cc1`: inactive: 93%; `CC1CCCCN1C(=O)C1CCN(S(=O)(=O)c2ccc(-n3cnnn3)cc2)CC1` (centres undefined): inactive: 87%.
For `Cc1ccc(C)c(NC(=O)C2CCCN(S(=O)(=O)c3cn(C)cn3)C2)c1` (centres undefined), the survival is inactive: 103%.
Then `Cc1ccc(N2C(=O)N(Cc3cc(=O)n4ccccc4n3)c3ccccc3S2(=O)=O)cc1Cl`, with inactive: 83%.
For the molecule `CCOc1ccccc1CNC(=O)Cn1cc2c(n1)-c1c(oc(C(=O)N3CCCC3)c1C)CC2`, the survival was inactive: 75%.
As for `Cc1ccc(S(=O)(=O)CCSC(=N)N)cc1`, the survival was inactive: 96%.
Consider `CCn1cc(C(=O)N2CCN(c3cc(C)ccc3C)CC2)c(=O)c2cc(S(=O)(=O)N3CCCCC3)ccc21`, for which the survival was inactive: 82%.
Next, `COc1ccc(N2CCN(Cc3cccn3-c3nnc(N4CCN(C5CCCCC5)CC4)s3)CC2)cc1`: inactive: 67%.
Consider `Cc1ccc([N+](=O)[O-])cc1S(=O)(=O)N1CCn2cccc2C1c1ccccc1` (centres undefined), for which the survival was inactive: 83%.
Next, `CCOc1ccc(-n2nc(CO)c(C(=O)NCc3cccs3)n2)cc1`: active: 40%; `CC(Oc1ccc(Br)cc1)C(=O)Nc1ncn[nH]1` (centres undefined): inactive: 83%; `COc1ccc(C(=O)Nc2ccccc2SCc2cc(=O)c3cccc(C)c3[nH]2)cc1`: inactive: 76%.
Next, `COC(=O)c1ccccc1NC(=O)C1=C(C)C(=O)OC12CCCCCC2`: inactive: 84%; `O=C(O)Cc1sc(Nc2ccccc2)nc1-c1ccccc1`: inactive: 67%.
In the case of `COc1ccc(S(=O)(=O)NCCS(=O)(=O)N2CCN(c3ccccc3)CC2)cc1C`, the survival is inactive: 102%.
Then `Cc1ccc(S(=O)(=O)N2CCN(Cc3nc4ccc(C)cc4o3)CC2)cc1`, with inactive: 89%.
Regarding `O=C(CS(=O)(=O)c1cccc2nsnc12)N1CCN(c2cccc(C(F)(F)F)c2)CC1`, the survival is inactive: 67%.
`O=C(Cn1cc(S(=O)(=O)c2ccccc2)c(=O)c2cc3c(cc21)OCO3)Nc1ccc(Cl)cc1`: the survival is inactive: 46%.
Regarding `COc1ccc(Br)cc1CNC(=O)CCSCc1ccc(C)cc1`, the survival is inactive: 81%.
Then `CCCCNc1c2c(nc3ccccc13)CC(C)(C)CC2O` (centres undefined), with inactive: 101%; and `CSc1ccc(CCNC(=O)c2ccc(-c3nc(COc4ccc(C)cc4)c(C)o3)cc2)cc1`, with inactive: 82%; and `CCOC(=O)CSc1nc2ccccc2c(=O)n1-c1cccc(C)c1`, with active: 31%.
Then `O=C1c2[nH]nc(-c3ccccc3O)c2C(c2cccc(O)c2)N1Cc1ccncc1` (centres undefined), with inactive: 103%.
As for `O=C(Cn1cc(C(=O)c2ccncc2)c(=O)c2cc(F)ccc21)Nc1ccc(Cl)cc1`, the survival was inactive: 91%.
Then `CC(CN1CCCC1)OC(=O)c1ccc(F)cc1` (centres undefined), with inactive: 85%.
In the case of `COc1cccc(-n2cc(C(=O)OCc3ccc(F)c(F)c3)c3ccccc3c2=O)c1`, the survival was inactive: 72%.
Next, `Cc1ccc2c(c1)N(S(=O)(=O)c1cc(-c3onc(C)c3C)ccc1C)CCO2`: inactive: 90%; `O=C(CN1C(=O)COc2ccc(S(=O)(=O)N3CCCC3)cc21)N1CCN(c2ccc(Cl)cc2)CC1`: inactive: 90%; `Cc1ccc(O)c(NC(=O)c2noc3c2CCCC3)c1`: inactive: 64%.
On to `COc1ccccc1CNC(=O)CCn1c(=O)c2ccccc2n(CC(=O)Nc2ccc(Br)cc2F)c1=O`, for which the survival was inactive: 83%.
Then `Cc1ccccc1NC(=O)CSc1nnc(COc2ccc(Cl)cc2)o1`, with inactive: 45%; and `CCOCCn1ccc2c(OCC(=O)NCc3ccc(C)cc3)cccc2c1=O`, with inactive: 101%; and `CCCSc1ncc(Cl)c(C(=O)NCc2ccc(OC)cc2)n1`, with inactive: 52%.
Then `CN(C)CCNC(=O)c1ccc2c(c1)N(Cc1ccccc1)C(=O)c1ccccc1S2(=O)=O`, with inactive: 130%.
Next, `COc1ccc(-c2cn3nc(N4CCCC(C(=O)Nc5cccc(Cl)c5C)C4)sc3n2)cc1` (centres undefined): inactive: 82%; `Cc1ccc(NC(=O)CSc2ccc3nnc(CCNS(=O)(=O)c4ccccc4)n3n2)cc1Cl`: inactive: 56%; `Cc1ccc(Cl)cc1NC(=O)N1CCC(CN2CCCCCC2)CC1`: inactive: 83%.
Consider `Cc1ccc2cc(CN(C)C(=O)c3cccc(Cl)c3)c(=O)[nH]c2c1`, for which the survival is inactive: 73%.
Next, `CC(C)N(C(=O)CSc1nnc(Cn2nnc3ccccc32)n1C)C(C)C`: inactive: 81%; `Cc1ccccc1NC(=O)c1cccc2c(=O)c3c([nH]c12)CCCC3`: inactive: 68%.
Next, `O=C(Nc1ccc(F)c(Cl)c1)C1CCN(S(=O)(=O)c2ccc3[nH]c(=O)ccc3c2)CC1`: inactive: 55%; `CCCCNc1nc2c(c(=O)n(C)c(=O)n2C)n1CC(O)COc1ccccc1C` (centres undefined): active: 42%; `Cc1ccc(C(=O)Nc2nc3n(n2)C(c2ccc(F)cc2)C=C(c2ccccc2)N3)cc1` (centres undefined): active: 43%.
Then `Cc1nn(C)c2c1c(C(F)(F)F)cc(=O)n2CC(=O)N1CCCCC1`, with inactive: 94%; and `O=C(O)c1cccc(Nc2ncnc3ccc(Br)cc23)c1`, with inactive: 119%.
